This is one part of the list.
The sequences below were run on PfSIP2 AP2 domain 1 (GST-tagged) (assay: gcPBM binding intensity (ln(normalized median fluorescence intensity)); higher = stronger DNA binding).
In short: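 An Agilent 4 × 180k array carrying primer-extended double-stranded 36-bp intergenic genomic probes and negative controls received GST-tagged P. falciparum DNA-binding domains expressed in E. coli, about 25 μg on average, for 1 h. The binding buffer contained 1× PBS, 1% milk, 0.2 mg/ml BSA, 0.5% salmon testes DNA and 0.03% Triton X-100. Binding intensity is the top Masliner-normalised natural-log median intensity across replicate spots of either probe orientation, read after Alexa488 anti-GST antibody staining and a 488 nm scan.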

Row | Sequence | gcPBM binding intensity (ln)
1 | TATATATATATATGTATGCACTTTAATTTTATAAGG | 9.6
2 | AATATAAATAAAAACACACACACACCGATATATATA [CACACA_site5283] | 7.31
3 | AAGATTAGGTTAATTAGTACTTATTATATTGTAATG [XGTACX_site3653] | 6.85
4 | TAATTTTTTTTAATAACACACATATAAATATAAATA [CACACA_site6521] | 7.01
5 | CATTTGCACCCGCACACACACATAAAAAGAAAAATA [CACACA_site4350] | 11.6
6 | GAAACAATTTGATATTGTACATAAATAAATAAAAAC [XGTACX_site8869] | 7.33
7 | CATATTATTATTTTGGTGCATACTTATATATATTTT | 9.74
8 | GTACCTATTTCATACACACACACACCCAAACAAACA [CACACA_site976] | 7.61
9 | AACATTGATAAATATAAACACACGAAAACAGACATA [CACACA_site490] | 7.2
10 | CTTGTACCTAGAAATACACACAATTCTATAACTTAT [CACACA_site7355] | 6.99
11 | AATGTGTAGACACGCACACACAAAAAAATATATATA [CACACA_site5595] | 7.29
12 | AATGTAGAAATGGGTGCACACACATATATAATATAT [CACACA_site8799] | 11.7
13 | GTTTTATTTTCAATGTGTACTTATTATTTGATATAC [XGTACX_site6402] | 7.76
14 | TATAAAAATATTTCTACACACATTAAAATATATATA [CACACA_site4770] | 7.12
15 | CATTTGCCCAGGCACACACACATAAAAAGAAAAATA [CACACA_site356] | 7.16
16 | AATGAAAGGATGCTGTGTACATATATATATATATAT [XGTACX_site7901] | 9.65
17 | TGGTCTTTTAAACAAAAATATAAATTTTTAAATATG [CACACA_negctrl_site392] | 6.77
18 | AAGAAAATTGTCTGAAGTACAAAACATTAATAATAT [XGTACX_site4864] | 6.98
19 | AATTTAATATAATGCACACATAAAAAAAAAAAATTC [CACACA_site1504] | 7.54

Row | Sequence | gcPBM binding intensity (ln)
20 | AGCTTGTGGATGCAGGTGCTACATTTGTTCTATAAT [GTGCAC_site9645] | 7.66
21 | AAGATAAATTATTATAAATCAATTGTGCCAACAATA [CACACA_negctrl_site144] | 6.69
22 | TTTTTTTTGTGTTCAAGTACAAAATTTTAAAGGTCA [XGTACX_site4011] | 7.12
23 | GGTTATTTCACAGAATGTACTTATTATATATAAAAT [XGTACX_site8886] | 7.26
24 | TATATATATATATAAGCACACAAACAAAAAAAATTA [CACACA_site9293] | 9.24
25 | TTGAGTTGTATAAAAAGTACAAGGTTTTAACTAAAT [XGTACX_site1447] | 7.07
26 | TTATAATATTCATAAGGTACAGTTTATATATGTTAT [XGTACX_site8442] | 7.03
27 | AATAATCATGATCAAAGTACGTATGATTAAAAAAAA [XGTACX_site4916] | 6.9
28 | TATATGTAAATGGACACACACATATATATATATATA [CACACA_site3659] | 9.36
29 | TATGACCTTAGTAATTGTACACAAACATATTAATAT [XGTACX_site3340] | 6.98
30 | GAGTATATGATATATATATATATATAAAAAAAAAAA [GTGCAC_negctrl_site99] | 7.15
31 | TGGTATATTATTTTTTGTACACATAAATGAAACATT [XGTACX_site5345] | 7.25
32 | ATATAGATTCGACACACACACAAAAAAAAAAAAAAA [CACACA_site7677] | 7.12
33 | GTACCTATTTCATACACACACACACGCAAACAAACA [CACACA_site6590] | 7.81
34 | CGTATATCACCAACTAGTACATATAAATAAATAAAT [XGTACX_site8837] | 7.27
35 | ATATATATATATATATGTACATATTATTATTTTGAT [XGTACX_site4752] | 9.23
36 | ATATATATAATAAACACACACATATACATAGATGTA [CACACA_site5841] | 7.49
37 | ATATATATTATATGCACACTAATAAGACTATTTAAA [CACACA_site3554] | 9.68
38 | GTATATGTACTATACGCACACACACCCACATATATA [CACACA_site9062] | 7.19

Row | Sequence | gcPBM binding intensity (ln)
39 | TTGTACATCTTTTGCACACGTAATGTTATTATAATA [CACACA_site1258] | 7.5
40 | TTATAACTTTTGAGCACACACAAGCATATAAATATA [CACACA_site6933] | 6.89
41 | AAATACTGTAAAAAAGCATGCCACTAATAATAATTA [TGCATGCA_site759] | 6.81
42 | TCATTTTTTTGTTTGGTGCGACTTGAAAATTTGATT | 9.31
43 | ACCTTTGTAGTTGGTCCACACACATATATGGAAGAA [CACACA_site8351] | 7.47
44 | CATACATTTAAAAAGTGTACGTATATGAAAAAAGGA [XGTACX_site6512] | 7.58
45 | TGTGTGTGTATATGTGTGCACATATAAAATAGAAGA [GTGCAC_site9714] | 8.95
46 | ATATGTGTTATTTATACATGCAGAAGAATATCTATT [TGCATGCA_site828] | 7.06
47 | ACATATATATAATATATATATCATCATATTTTCTTA [CACACA_negctrl_site853] | 6.98
48 | CTCAATATTATTACTACACACAAATTAAAATTTTCC [CACACA_site4203] | 7.18
49 | AGAGAATAAATATAAAGTACATATATAAATATATAT [XGTACX_site5055] | 7.07
50 | ATGTTATAAATCTTAATATATATATGCAAAAGAGAA [XGTACX_negctrl_site521] | 7.55
51 | ACATATACAAAACACACACACAACGTTTTAATAAAT [CACACA_site1979] | 7.37
52 | GTATATAAAAATTCATGTACATATTATTATTTTTAA [XGTACX_site658] | 7.24
53 | CATATACATATATGTAGTACGTGTTCTTCTATATGA [XGTACX_site8344] | 7.11
54 | TACATATACAGACACACACACACACCCCCACAAAAA [CACACA_site495] | 8.23
55 | AAATTGAATTAGTTAACACACAACTTTTATTTCATA [CACACA_site2840] | 6.72
56 | AATATATACATTTATATACACACCTATATATATATA [CACACA_site1972] | 9.21
57 | AAATTAATAAGTCACACACACATATATAATATATAT [CACACA_site799] | 7.37
